These results are taken from the supplement of paper PMC11417369.

± gives the standard deviation of the averaged measurements. Some of the results follow.

The experiment deals with PfAP2-LT AP2 domain (GST-tagged). Kind of experiment: gcPBM binding intensity (ln(normalized median fluorescence intensity)); higher = stronger DNA binding. The procedure, abridged: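 GST-tagged P. falciparum DNA-binding domains produced in E. coli were incubated for 1 h on an Agilent 4 × 180k array of primer-extended double-stranded 36-bp intergenic genomic probes with negative controls. Binding intensity is the highest Masliner-normalised natural-log median intensity across replicate spots of either probe orientation, with bound protein detected by Alexa488 anti-GST antibody at 488 nm.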
Take “TATTGTTATGTCGTTATTAACTTTCTTTAATTAATT [CACACA_negctrl_site174]”: the “gcPBM binding intensity (ln)” value came to 8.68 ± 0.43.

Regarding “TGAAAGTTCAATAATTGTACATGTGGAAATTCATAC [XGTACX_site1378]”, the “gcPBM binding intensity (ln)” value stood at 8.77 ± 0.42.

For the sequence “AAATATTCATAGTATACACACATTTATATATAATCA [CACACA_site771]”, the “gcPBM binding intensity (ln)” value stood at 8.84 ± 0.34.

Regarding “AAAATTATAAATCTTGCACACAAAAAAAATAATAAA [CACACA_site8771]”, the “gcPBM binding intensity (ln)” value came out at 8.88 ± 0.51.

In the case of “TTTTCATTTATGTATATATTTATTTTGATTTAATGT [GTGCAC_negctrl_site607]”, the “gcPBM binding intensity (ln)” value is 8.7 ± 0.58.

Take “AATTATTTTATGTGAGGTACACCACACATGAAGGGG [XGTACX_site8450]”: the “gcPBM binding intensity (ln)” value worked out at 9.43 ± 0.23.

With “TAAATATATTCAATCACACACATTCGTTTTTTTTTT [CACACA_site234]”, the “gcPBM binding intensity (ln)” value turned out to be 8.92 ± 0.57.

With “TATATATATTTAAGGTGTACATAAATAACAAAATAT [XGTACX_site2641]”, the “gcPBM binding intensity (ln)” value came out at 8.82 ± 0.47.

In the case of “AAGTGTATACAGAAGAGTACAAACAATTTTTTTCTT [XGTACX_site7387]”, the “gcPBM binding intensity (ln)” value amounted to 8.82 ± 0.48.

For “ATATTTCGTCTAAAAAGTACACAACAATAAAAAGTA [XGTACX_site6668]”, the “gcPBM binding intensity (ln)” value was determined as 8.76 ± 0.44.

Consider “TTTTTTAAATAATATTGTACAAAAAATGTATAAATA [XGTACX_site3010]”, for which the “gcPBM binding intensity (ln)” value stood at 8.44 ± 0.42.

Turning to “TTAGGTTTATACACTACACACATTATTCATAAAAAA [CACACA_site871]”, the “gcPBM binding intensity (ln)” value amounted to 8.78 ± 0.35.

As to “TTTTGTTATGGTTTGATGCACTTATATATAAATATT [GTGCAC_site9705]”, the “gcPBM binding intensity (ln)” value is 8.87 ± 0.37.

As to “CACAGTGATATAAAAACACACATGAATTATAATTTC [CACACA_site1667]”, the “gcPBM binding intensity (ln)” value amounted to 8.96 ± 0.36.

With ATGTAGATAAAACGTGTGCACATGTTTTTTGTTATT, the “gcPBM binding intensity (ln)” value was 10.3 ± 0.2.

With “ATATATATATATATATGTACTTATTACCAATGTTAG [XGTACX_site1896]”, the “gcPBM binding intensity (ln)” value worked out at 9.66 ± 0.25.

With “AAGCCCATTATTAAATGTACAAAATTTTATAAACTA [XGTACX_site7800]”, the “gcPBM binding intensity (ln)” value is 8.52 ± 0.41.

As for “CAGTGCCAAATTAGCACACACATATATACATGAATT [CACACA_site2814]”, the “gcPBM binding intensity (ln)” value stood at 9.3 ± 0.38.

With “GTATATATGTATATATGTACATATATATAATATATT [XGTACX_site56]”, the “gcPBM binding intensity (ln)” value is 8.79 ± 0.38.

With “TAAAACATATATACAAGTACACAAAGGATATATATA [XGTACX_site3710]”, the “gcPBM binding intensity (ln)” value turned out to be 8.96 ± 0.42.

For “TATAGGTATTTATATACACACATATTCTTTTTACAC [CACACA_site6686]”, the “gcPBM binding intensity (ln)” value came to 9.07 ± 0.38.

As to “TACAATATTTTGAGACGTACATATATACATTTACAT [XGTACX_site5880]”, the “gcPBM binding intensity (ln)” value was found to be 8.95 ± 0.47.

Consider “CTTACCAAAAGACACACACACACAAGATATATAAAT [CACACA_site6964]”, for which the “gcPBM binding intensity (ln)” value came out at 9.87 ± 0.28.

As for “AAATTAAAATAAAAATGTACATATAAAGACACAACT [XGTACX_site3132]”, the “gcPBM binding intensity (ln)” value was determined as 9.24 ± 0.47.

For “TGAACTTACTTGGACATACACACATATATATATATA [CACACA_site2977]”, the “gcPBM binding intensity (ln)” value worked out at 9.54 ± 0.2.

In the case of “TGTAAGTCGTTATAAGCACACACATAAATAAAAATA [CACACA_site8448]”, the “gcPBM binding intensity (ln)” value turned out to be 9.21 ± 0.42.

Consider “TATATATATATACCAACACACATACAGATATATATA [CACACA_site5060]”, for which the “gcPBM binding intensity (ln)” value is 9.24 ± 0.19.

As to “TTTATATACAAAAATGCACACGAAAAGTAATATATA [CACACA_site9387]”, the “gcPBM binding intensity (ln)” value came to 9.02 ± 0.34.

Turning to “ATTTAAATACAAAATTGTACTTTTCTATATTTAACA [XGTACX_site6146]”, the “gcPBM binding intensity (ln)” value is 8.47 ± 0.39.

On to “ACCCATTTAACAAAATGTACATTATTATAATTACTT [XGTACX_site7105]”, for which the “gcPBM binding intensity (ln)” value came to 8.77 ± 0.34.

Consider “AAATTTTAAATAGTATGTACGTATGAAATATATATG [XGTACX_site7511]”, for which the “gcPBM binding intensity (ln)” value stood at 8.73 ± 0.3.

In the case of “AAAATTTTACAGAAGGTGCGTATATTTTCCTGCTTA [GTGCAC_site9643]”, the “gcPBM binding intensity (ln)” value is 8.92 ± 0.41.

“TTTGGAAAAAAATTATTTAAACGATATGAATTGATG [XGTACX_negctrl_site506]”: the “gcPBM binding intensity (ln)” value was 8.21 ± 0.4.

“AATCATCTCATAAAAATTAATTAGTGTATGTCTTTT [TGCATGCA_negctrl_site416]”: the “gcPBM binding intensity (ln)” value was found to be 8.65 ± 0.4.

For “CTACTTATAAATAGAACACACATAAGTGTATTTGTA [CACACA_site3759]”, the “gcPBM binding intensity (ln)” value was found to be 8.75 ± 0.41.

Take “ACAATATAGATTAAAAGTACAAATAGTAAATTATAT [XGTACX_site3165]”: the “gcPBM binding intensity (ln)” value was determined as 8.96 ± 0.52.

For “AAAACAATATACTGTAGTACTGATGATATATATATA [XGTACX_site7798]”, the “gcPBM binding intensity (ln)” value was found to be 9.01 ± 0.38.

As for “TCTTAAATATATAAATTGAAAAATATAAAAGTAATA [CACACA_negctrl_site1558]”, the “gcPBM binding intensity (ln)” value turned out to be 8.3 ± 0.42.

Take “ATAAAAAAAAATAGCACACATAAATATATTATATAT [CACACA_site767]”: the “gcPBM binding intensity (ln)” value stood at 8.96 ± 0.45.

Consider “AAAAAATACCTCTATAGTACATATATATAATATTTA [XGTACX_site7222]”, for which the “gcPBM binding intensity (ln)” value turned out to be 8.62 ± 0.33.

“AAAAAAAATTTATTTGCATGCAAAAAAAAAAAAAAA [TGCATGCA_site67]”: the “gcPBM binding intensity (ln)” value turned out to be 8.79 ± 0.32.

Take “TAATTATGTATGAACTGTACAGGTTATTTTATTTTA [XGTACX_site5204]”: the “gcPBM binding intensity (ln)” value came to 8.65 ± 0.39.

Regarding “TAAAATTTAAATTATACACACTTAAGTAACATCATC [CACACA_site4450]”, the “gcPBM binding intensity (ln)” value is 8.77 ± 0.37.

For “AAAAATAAAACAATTACACACATAACTTTATTTTTA [CACACA_site6563]”, the “gcPBM binding intensity (ln)” value amounted to 8.81 ± 0.38.
